Assay results as given in the RNAGym collection of RNA variant scans (doi:10.7554/elife.90254).
The source gives no read counts; variants with many changes may rest on few reads.

B1: LINE1-mini (parent)
chain: GGCAGAGCUCAACACAGCGUGGCAAAGUGGCUGUGGCUAGACUGCC

Variants of: B1
Experiment: self-cleavage, relative activity (ratio to wild type); higher = more cleavage; in vitro, sequencing; the parent is a self-cleaving ribozyme

Row | Variant | self-cleavage
1 | C13A C23A C31A | 0.04
2 | C13A A16G G33U | 0.11
3 | A12U U20C G36U | 0.02
4 | C13A G17U G19U C42U | 0.03
5 | C13A G22C C45A | 0.08
6 | A12U G22A A39C C46U | 0.02
7 | A12U G19A U20G G21A U34G | 0.06
8 | A12U G30C C45A | 0.02
9 | C13A U20G G33A | 0.01
10 | A12U G19A G22C U43A | 0.01
11 | A12U G36A U38A U43A | 0.01
12 | C13A G21U A25G | 0.04
13 | A12U C31A U32G U43C | 0.06
14 | A12U C37U G40C | 0.03
15 | C13A A14C G35A G40U | 0
16 | A12U U20C C45G | 0.01
17 | C13A A24C G35C | 0.04
18 | C13A G21A C37A | 0.2
19 | C13A G17C U20G C45A | 0.02
20 | C13A C31G C42G | 0.1
21 | C13A C15A A25C G29U G30A | 0.02
22 | C13A A16C C23U G36U A39U U43A | 0
23 | C13A G21U A24C A26U G30C | 0.01
24 | C13A G21U U43C | 0

Row | Variant | self-cleavage
25 | A12U G29C A41C | 0.05
26 | A12U G21A U38C | 0.2
27 | A12U G35C G36A | 0.07
28 | A12U G19C C23A U38G G40U | 0.01
29 | C13A A16U A24C G33C U34G | 0.05
30 | A12U C23G A26G | 0.09
31 | C13A G21C C31G G36U G40A | 0.02
32 | A12U U20G G21U C31G | 0.01
33 | C13A A25G G36C C37G C42G | 0.01
34 | A12U G21A U28C A41G | 0.03
35 | C13A A14U C45U | 0.22
36 | C13A C15U A24U U38A A39C G44C | 0.1
37 | A12U C37U C45U | 0.01
38 | C13A G35U C46A | 1.19
39 | C13A G21C G44A | 0
40 | C13A G36C G44U | 0.03
41 | C13A U34C C46G | 0.03
42 | C13A C15G U32C G36U | 0.05
43 | C13A G17A U20G G22U G27A G30C | 0.03
44 | C13A C18G G40U | 0.05
45 | C13A A26U G35A C45U | 0.01
46 | C13A G27A C37A | 0.05
47 | A12U G22A A24G | 0.04
48 | C13A C15A G17A G35U | 0.01

Row | Variant | self-cleavage
49 | A12U G21C G40U U43C C46U | 0.03
50 | C13A U28A U38G | 0.01
51 | A12U C31G A39C | 0.01
52 | C13A U20C U34A G36C | 0.07
53 | C13A C18G G22A G27C G35A G36A | 0.66
54 | C13A C18U G27A U43A | 0.07
55 | C13A C15A G21U G22C | 0.03
56 | A12U G35A G36A | 0.1
57 | C13A C15U U20C A41G | 0.18
58 | C13A G17U C37G C45U | 0.07
59 | C13A G27C G29C G44A | 0.02
60 | C13A A14U G17A G19C G21C G36U | 0.01
61 | A12U G27U G44U | 0.36
62 | C13A G27A C31A | 0.07
63 | A12U G19A C31G | 0.01
64 | C13A G21C A24G G33A G36U C46U | 0.04
65 | C13A C23A G40C C42U U43A | 0.04
66 | C13A A16G C18G | 0.13
67 | A12U G19C C23G C31G U38C | 0.11
68 | C13A C37U U43A G44A | 0.15
69 | C13A A14G G27A | 0.06
70 | A12U G29C C37U G40A | 0
71 | A12U G17U G19C A25C | 0.27
72 | C13A G17C G33C C46G | 0.02

Row | Variant | self-cleavage
73 | A12U U20C U32G G35U C42A | 0
74 | C13A G17C G21C C46A | 0.09
75 | C13A A14U G22A | 0.07
76 | A12U G21A A25G U34A | 0.01
77 | C13A U38C C45A | 0.11
78 | A12U G21U G40U C46U | 0.02
79 | A12U U28G A39C | 0.07
80 | A12U G33A C42U | 0.03
81 | C13A G27C G33C C42G | 0.11
82 | C13A A25G U38A G44U | 0.01
83 | A12U G29A G40A A41G | 0.08
84 | C13A G27C C42G | 0.1
85 | A12U G33U G36U | 0.02
86 | A12U U20G A26U | 0.26
87 | A12U U20G A26G | 0.05
88 | C13A G33C G40U C46A | 0.02
89 | C13A C15A G17A G36U | 0.01
90 | A12U G21U G29A U32G C37U | 0.04
91 | C13A G40U C45U | 0.05
92 | A12U G22C A25U | 0.22
93 | C13A A16G G17A G19A | 0.03
94 | C13A G17C A24C | 0.06
95 | C13A U34A A41G | 0.01
96 | A12U U20A G22A | 0.24

Row | Variant | self-cleavage
97 | A12U C31U A41U U43C | 0.03
98 | A12U G21U G29C | 0.23
99 | C13A U28A G40C C42G | 0.07
100 | C13A C18U A26U C42U | 0.05
101 | C13A G22U C31U U32A | 0.1
102 | C13A C37U C46G | 0.02
103 | C13A A24U G36U | 0.88
104 | C13A C23G G30U G33A C37U U38G U43C | 0.02
105 | C13A G19U G36C | 0.01
106 | C13A C15A G17A G19C G22C U43G C45G | 0.07
107 | C13A A24G G27A G33U | 0.01
108 | C13A U20G G30U G36A A39G | 0.01
109 | C13A G33C U38G C45U | 0.01
110 | A12U G17A G19U A39U | 0.04
111 | C13A C18U A24U C42A | 0.1
112 | C13A G17A G35C | 0.01
113 | C13A G22A C23A A25G U28C G33C | 0
114 | C13A G17A A24G C31G C45U | 0
115 | C13A A14C C15A G17A G22U C23A G35C | 0.02
116 | C13A A16C G21C G29C | 0.05
117 | C13A G19U G21A G29U C46A | 0.13
118 | C13A G19U C31G G33C C42A C46A | 0.02
119 | C13A G29C A41C U43A C45A | 0.11
120 | C13A A26G G30U | 0.01

Row | Variant | self-cleavage
121 | C13A G22U A41G U43A | 0.08
122 | C13A C23U A39G | 0.09
123 | A12U U20G G29A G44C | 0.09
124 | C13A C23G A24C U32C G36A | 0.01
125 | C13A A24C C37U G40U C46A | 0.02
126 | C13A G27U C42A C45G | 0.03
127 | C13A G36U G44A | 0.08
128 | C13A C15U G22A U28C | 0.13
129 | C13A A25G G27U G35A C42U | 0.04
130 | C13A A25C G29A U32C G35C | 0.07
131 | C13A G30C U38C G44A | 0.1
132 | C13A U28C C31G C46G | 0.05
133 | C13A G35C C37G | 0.01
134 | C13A G27U G36A | 0.09
135 | C13A G33U G40U | 0.19
136 | A12U G29C A39U C45U | 0.13
137 | A12U G22U A25U G30C G33A C37G | 0
138 | C13A G17A A26C G30U | 0.12
139 | C13A C23U G35U | 1.31
140 | C13A G17C U20C | 0.01
141 | C13A C23U U32C G44A | 0.03
142 | C13A G19A A24U G30A | 0.05
143 | A12U G36A G40U G44C | 0.03
144 | C13A A14C A16C | 0.07

Row | Variant | self-cleavage
145 | C13A C18A G19C G22U A26U G27U | 0.03
146 | A12U G19C G44A | 0.04
147 | A12U G30C A39U | 0.17
148 | C13A A16U C18U U34A A41G C46U | 0.04
149 | C13A C15G G40U | 0.1
150 | A12U G29A U38C | 0.66
151 | C13A C23U G33U C45U | 0.02
152 | C13A C18G A26C C31A U32C A41U U43C | 0.01
153 | A12U C42U C46U | 0.04
154 | C13A C18A C23A | 0.02
155 | A12U G19C A24C A26U G30A | 0.02
156 | C13A G30U G35C | 0.11
157 | C13A C15A A16C | 0.09
158 | C13A G17C A26G A39C | 0.01
159 | C13A A26G G29C | 0.05
160 | C13A G21C G35C U38G | 0
161 | A12U G29U G35U G36A | 0.09
162 | C13A G19C A24C A39G G40U C46G | 0.02
163 | C13A G21U G27C | 0.06
164 | C13A A16C G22A | 0.04
165 | C13A A14G C15G C18G A25C U43C | 0.01
166 | C13A G17A A25U C31U G36U G40U | 0.04
167 | C13A A16U U38C | 0.69
